We go through 43 molecules from ChEMBL document CHEMBL4888484, “Replenishing the malaria drug discovery pipeline: Screening and hit evaluation of the MMV Hit Generation Library 1 (HGL1) against asexual blood stage Plasmodium falciparum ,using a nano luciferase reporter read-out” (2022).

Out of some 150,000 compounds screened, about 540 (0.36%) showed an effect of 50% or more. This is one part of the list.

The experiment concerns Plasmodium falciparum. As to the kind of experiment: Primary screen in NF54 nanoGlo assay, in single point, at 2uM, 72h; a lower Z score goes with more inhibition. It counts as functional, Erythrocyte. The settings on record: timepoint 72 hour.
What is called % Inhibition is the drop in the measured response relative to a control, in per cent. As to `CN(C)CCN(C)C(=O)Nc1ncccc1OCC1CCCCC1`, the “% Inhibition” value came out at 8% and the Z score was -0.98.

On to `O=C(NCCOc1ccccc1Cl)N1CCC(n2cccn2)CC1`, for which the “% Inhibition” value is listed as -4% and the Z score was determined as 0.71.

Take `CCc1nc(-c2ccc(-c3noc(-c4cccc(OC)c4OC)n3)cc2)cs1`: the “% Inhibition” value is recorded as 2% and the Z score is on record as -0.17.

As to `N#CCc1ccc(NCc2cc(-c3ccccc3)[nH]n2)cc1`, the “% Inhibition” value came to 4% and the Z score was -0.51.

As to `Cc1cccc(NCCN2C(=O)Cc3ccccc32)n1`, the “% Inhibition” value turned out to be 0% and the Z score was determined as 0.01.

On to `COc1ccc(NC(C)=O)cc1NCc1ccc(C2CC2C)o1` (stereo unspecified), for which the “% Inhibition” value was found to be 3% and the Z score is recorded as -0.39.

Regarding `Cn1cc(S(=O)(=O)N2CCCCC2)cc1C(=O)Nc1ccc2c(c1)OCO2`, the “% Inhibition” value is -5% and the Z score is given as 0.66.

On to `OC[C@H]1CCCN(CCNCc2ccc(Cl)s2)C1`, for which the “% Inhibition” value came out at 1% and the Z score is -0.23.

Consider `CCC(=O)N1CC(=O)N(c2cccc(OC)c2)C[C@@H]1Cc1ccccc1`, for which the “% Inhibition” value is reported as -7% and the Z score was found to be 0.67.

Turning to `Cc1ccsc1-c1c(-c2ccccc2)ncn1CCN1CCC[C@H](CO)C1`, the “% Inhibition” value was -13% and the Z score is given as 1.26.

Regarding `CC(C)OC1(C(=O)N2CC[C@H](O)[C@@H](C3CCCC3)C2)CCOC1` (stereo partly specified), the “% Inhibition” value is given as -3% and the Z score was determined as 0.48.

As for `O=C1CN(CCCO)C(=O)CCc2ccc(cc2)Oc2cccc(c2)CO[C@H]2CCN(C(=O)c3ncoc3C3CC3)C[C@@H]2N1`, the “% Inhibition” value was -5% and the Z score was 0.88.

In the case of `C[C@H](NC(=O)c1ncoc1C(F)(F)F)c1ccc(F)cc1OC(F)F`, the “% Inhibition” value is on record as -16% and the Z score is 2.28.

For `CCc1cc(Br)cc2c1N(C(=O)c1cn(C)nn1)CCC2`, the “% Inhibition” value turned out to be 4% and the Z score is recorded as -0.52.

For `CCOC1CC(O)(CNC(=O)c2cc(C)ccc2Br)C1` (stereo unspecified), the “% Inhibition” value came to 4% and the Z score was -0.48.

With `C[C@@H](CC#N)N1CCC(C2CCOCC2)CC1`, the “% Inhibition” value is -7% and the Z score worked out at 1.01.

On to `O=C(O)C1(n2cccn2)CCN(c2nc(-c3ccccc3)cs2)CC1`, for which the “% Inhibition” value was -4% and the Z score was found to be 0.76.

For the molecule `O=C(CCN1CCCC1=O)Nc1ccc2cc(Cl)cnc2n1`, the “% Inhibition” value is given as -9% and the Z score is 0.96.

In the case of `CN1CCC(N(CCc2ccccc2)C(=O)c2cnsn2)CC1`, the “% Inhibition” value amounted to 10% and the Z score was -1.3.

As for `Cc1cccc(O[C@@H](C)c2cccnc2)n1`, the “% Inhibition” value is recorded as -4% and the Z score was found to be 0.55.

`c1ccc([C@@]2(CN3CCC(OCc4cccnc4)CC3)CCOC2)cc1`: the “% Inhibition” value is listed as -10% and the Z score is on record as 1.79.

In the case of `CC(C)c1nc([C@@H]2CC(=O)Nc3n[nH]c(-c4ccccc4)c32)co1`, the “% Inhibition” value was -1% and the Z score was determined as 0.24.

For the molecule `Cc1ccc(C2CCCCCN2S(=O)(=O)C(C)C(=O)N(C)C)o1` (stereo unspecified), the “% Inhibition” value stood at 3% and the Z score was -0.44.

As for `CCO[C@@H](C(=O)NC(C)(C)c1cc(C(F)F)on1)c1ccccc1`, the “% Inhibition” value was -5% and the Z score is reported as 0.71.

For `CCOc1cc(CNC2CCCC2)cc(Cl)c1OCc1ccccc1Cl`, the “% Inhibition” value amounted to 5% and the Z score was -0.63.

As for `C[C@@H]1Oc2ccc(S(=O)(=O)N3CCN(C(=O)Cc4c(F)cccc4Cl)CC3)cc2NC1=O`, the “% Inhibition” value is recorded as -23% and the Z score was 2.27.

On to `O=C(NCCN1CCOCC1)C1CC2CCC1C2` (stereo unspecified), for which the “% Inhibition” value is -13% and the Z score amounted to 1.99.

Take `NC(=O)[C@@H]1C[C@@H]2CCCN2[C@]12C(=O)Nc1ccc(Br)cc12`: the “% Inhibition” value is listed as -2% and the Z score was found to be 0.24.

With `Cn1nc(CCNS(=O)(=O)CC2CCCCC2)c2ccccc21`, the “% Inhibition” value is given as -2% and the Z score is on record as 0.28.

As to `Cn1cnc2cc(-c3cnc(C4CC4)o3)ncc21`, the “% Inhibition” value is -8% and the Z score is 1.49.

On to `COc1ccc(C(=O)N2CCc3[nH]cnc3C23CCCCC3)cc1`, for which the “% Inhibition” value is -17% and the Z score came out at 1.9.

For `O=C1CCC(=O)N1Cc1nc(-c2ccc(C3CCCCC3)cc2)cs1`, the “% Inhibition” value is listed as -1% and the Z score is 0.18.

Consider `Cc1nn(C)c2c1C[C@H](Nc1ncc(C#N)cc1Cl)CN2`, for which the “% Inhibition” value is listed as -7% and the Z score is listed as 0.82.

For the molecule `CCOc1ccc(-c2cncc(C(=O)N(C)C)c2)nc1`, the “% Inhibition” value was -8% and the Z score turned out to be 1.48.

Turning to `O=C1NCC2(CCN(c3ccncc3F)CC2)O1`, the “% Inhibition” value was -3% and the Z score is on record as 0.33.

Regarding `COc1ccccc1OCC(=O)N1CC(n2ccnn2)C1`, the “% Inhibition” value was -5% and the Z score is recorded as 0.62.

Take `O=C(c1n[nH]c(=O)c2ccccc12)N1CCN(c2cc(C(F)(F)F)ncn2)CC1`: the “% Inhibition” value is given as -17% and the Z score is 2.2.

Take `CC1CCCC(C)N(C(=O)C2COCCO2)C1` (stereo unspecified): the “% Inhibition” value is given as -10% and the Z score is 1.34.

With `CCc1nnc(CNc2cc(NC(=O)OC(C)(C)C)ccc2C)n1C`, the “% Inhibition” value was -12% and the Z score worked out at 1.93.

As to `CC(C)(C)OC(=O)N1CCC[C@H](CC#N)C1`, the “% Inhibition” value is recorded as 5% and the Z score was -0.73.

For `O=C(Nc1cccc2ccccc12)c1cccs1`, the “% Inhibition” value was 7% and the Z score is on record as -1.18.

Consider `Cc1ccc(NS(C)(=O)=O)c(O)c1`, for which the “% Inhibition” value turned out to be 4% and the Z score was -0.45.

With `O=C(Nc1ccc(Br)cn1)[C@@H]1Cc2ccccc2O1`, the “% Inhibition” value is reported as -1% and the Z score came out at 0.24.
